Assay results as given in the supplement of paper PMC4604168 (melanoma cell lines).
The list shows a part of the results. Many values rest on one well or one pass, so single values are uncertain.

Experiments:
Assay in all cases: cell count relative to DMSO control; melanoma cells; higher = more viable cells
Settings in all cases: library dose: standard library concentration; 72 h
G361 = test system: G361
IPC-298 = test system: IPC-298
IST-MEL1 = test system: IST-MEL1
LOXIMVI = test system: LOXIMVI
MEL-HO = test system: MEL-HO
MeWo = test system: MeWo
RPMI7951 = test system: RPMI7951
RVH-421 = test system: RVH-421
SkMel28 = test system: SkMel28
SkMel30 = test system: SkMel30
SkMel5 = test system: SkMel5
UACC257 = test system: UACC257
UACC62 = test system: UACC62
WM115 = test system: WM115
WM1716 = test system: WM1716
WM1745 = test system: WM1745
WM3526 = test system: WM3526
LB2518-MEL = test system: LB2518-MEL
MZ2-MEL = test system: MZ2-MEL
SkMel2 = test system: SkMel2
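Also: cells treated in 1,536-well plates, then fixed and DAPI-stained, with nuclei counted from automated high-throughput microscope images.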

Row | SMILES | cell count (G361) [%] | cell count (IPC-298) [%] | cell count (IST-MEL1) [%] | cell count (LOXIMVI) [%] | cell count (MEL-HO) [%] | cell count (MeWo) [%] | cell count (RPMI7951) [%] | cell count (RVH-421) [%] | cell count (SkMel28) [%] | cell count (SkMel30) [%] | cell count (SkMel5) [%] | cell count (UACC257) [%] | cell count (UACC62) [%] | cell count (WM115) [%] | cell count (WM1716) [%] | cell count (WM1745) [%] | cell count (WM3526) [%] | cell count (LB2518-MEL) [%] | cell count (MZ2-MEL) [%] | cell count (SkMel2) [%]
1 | COc1ccc(COc2ccc(Cc3cnc(N)nc3N)cc2OC)cc1 + O=C(Oc1ccc([N+](=O)[O-])cc1)N1CCC(C(O)(c2ccc3c(c2)OCO3)c2ccc3c(c2)OCO3)CC1 [JZL184] (first compound 5 µM, partner dose 5 µM) | 78.9 | 92.9 | 92.4 | 96.2 | 87.8 | 88.9 | 71.2 | 100 | 91.4 | 90 | 95.8 | 79.7 | 108 | 85.8 | 84 | 86.6 | 81.9 | – | – | –
2 | COCC[n+]1c2c(n(Cc3cnccn3)c1C)C(=O)c1ccccc1C2=O + O=C(Oc1ccc([N+](=O)[O-])cc1)N1CCC(C(O)(c2ccc3c(c2)OCO3)c2ccc3c(c2)OCO3)CC1 [JZL184] (first compound 0.002 µM, partner dose 5 µM) | 68.5 | 37.8 | 50.2 | 75.5 | 84.6 | 38.6 | 27.1 | 85.7 | 37.7 | 44.5 | 30.4 | 12.4 | 61.7 | 54.4 | 52.8 | 62.1 | 22.3 | – | – | –
3 | C=CCn1c(=O)c2cnc(Nc3ccc(N4CCN(C)CC4)cc3)nc2n1-c1cccc(C(C)(C)O)n1 + Cc1cc(SCc2sc(-c3ccc(C(F)(F)F)c(F)c3)nc2C)ccc1OCC(=O)O [GW0742] (first compound 0.1 µM, partner dose 10 µM) | 87.3 | 82.7 | 103 | 92.7 | 81 | 65 | 60.7 | 115 | 29.9 | 75.7 | 60.5 | 78.5 | 73.7 | 66 | 95 | 57.5 | 69.3 | 61.9 | 99.8 | 85
4 | CC(C)C[C@H](NC(=O)[C@H](Cc1ccccc1)NC(=O)c1cnccn1)B(O)O [Bortezomib] + N.N.[Cl][Pt][Cl] [cisplatin] (first compound 0.005 µM, partner dose 8 µM) | 1.63 | 10.9 | 7.49 | 57.6 | 30.3 | 9.8 | 11.3 | 9.14 | 23.7 | 27.3 | 20.7 | 81.3 | 61.5 | 16.5 | 16.3 | 12.9 | 34.7 | 3.89 | 6.18 | 46.9
5 | C=CCn1c(=O)c2cnc(Nc3ccc(N4CCN(C)CC4)cc3)nc2n1-c1cccc(C(C)(C)O)n1 + C/C(O)=C(\C#N)C(=O)Nc1cc(Br)ccc1Br [LFM-A13] (first compound 0.1 µM, partner dose 10 µM) | 90 | 74 | 108 | 69.1 | 84.7 | 79.2 | 63.5 | 90.4 | 40.1 | 70.1 | 51.8 | 92.8 | 53.4 | 70.9 | 91.8 | 50 | 69.2 | – | – | 83.7
6 | CC(C)C[C@H](NC(=O)[C@H](Cc1ccccc1)NC(=O)c1cnccn1)B(O)O [Bortezomib] + O=C(Oc1ccc([N+](=O)[O-])cc1)N1CCC(C(O)(c2ccc3c(c2)OCO3)c2ccc3c(c2)OCO3)CC1 [JZL184] (first compound 0.005 µM, partner dose 5 µM) | 0.664 | 12.6 | 12.4 | 26 | 28.6 | 8.56 | 7.5 | 4.55 | 28.9 | 18 | 20.8 | 67.8 | 43.7 | 19.4 | 18.2 | – | 30.6 | 4.57 | 6.33 | 36.5
7 | Cc1nc(Nc2ncc(C(=O)Nc3c(C)cccc3Cl)s2)cc(N2CCN(CCO)CC2)n1 [dasatanib] + O=C(Oc1ccc([N+](=O)[O-])cc1)N1CCC(C(O)(c2ccc3c(c2)OCO3)c2ccc3c(c2)OCO3)CC1 [JZL184] (first compound 0.02 µM, partner dose 5 µM) | 69.3 | 92.4 | 63.6 | 11.5 | 74.6 | 81.3 | 43.6 | 57.7 | 102 | 83.2 | 42.4 | 88.3 | 80.4 | 61.6 | 40.8 | 38.5 | 80.1 | – | – | 91.6
8 | O=C(O)c1ccc2c(c1)nc(Nc1cccc(Cl)c1)c1ccncc12 + C/C(O)=C(\C#N)C(=O)Nc1cc(Br)ccc1Br [LFM-A13] (first compound 2 µM, partner dose 10 µM) | 53.9 | 75.2 | 83.5 | 80.5 | 57.2 | 68 | 54.9 | 75.2 | 43.5 | 59.2 | 59.5 | 88.1 | 77.6 | 73.9 | 84.7 | – | 68.5 | – | – | –
9 | CO[C@H]1C[C@@H]2CC[C@@H](C)[C@@](O)(O2)C(=O)C(=O)N2CCCC[C@H]2C(=O)O[C@H]([C@H](C)C[C@@H]2CC[C@@H](OCCO)[C@H](OC)C2)CC(=O)[C@H](C)/C=C(\C)[C@@H](O)[C@@H](OC)C(=O)[C@H](C)C[C@H](C)/C=C/C=C/C=C/1C [everolimus] + Cc1cc(SCc2sc(-c3ccc(C(F)(F)F)c(F)c3)nc2C)ccc1OCC(=O)O [GW0742] (first compound 0.1 µM, partner dose 10 µM) | 69.5 | 85.4 | 76 | 104 | 80.7 | 87.2 | 78.8 | 130 | 48.1 | 73.5 | 69.7 | 104 | 81 | 81.3 | 105 | – | 63.5 | 92.6 | 88.8 | 70.9
10 | O=C(O)c1ccc2c(c1)nc(Nc1cccc(Cl)c1)c1ccncc12 + Cc1cc(SCc2sc(-c3ccc(C(F)(F)F)c(F)c3)nc2C)ccc1OCC(=O)O [GW0742] (first compound 2 µM, partner dose 10 µM) | 71.9 | 62.8 | 85.6 | 72.8 | 53 | 79.6 | 62.4 | 74.8 | 56 | 75.5 | 85.8 | 85.9 | 61.9 | 110 | 103 | – | 74.1 | 85.5 | 71.2 | 83.9
11 | CN1CCN(c2ccc3nc(-c4c(N)c5c(F)cccc5[nH]c4=O)[nH]c3c2)CC1 [Dovitinib] + Cc1cc(SCc2sc(-c3ccc(C(F)(F)F)c(F)c3)nc2C)ccc1OCC(=O)O [GW0742] (first compound 0.5 µM, partner dose 10 µM) | 66.2 | 97.4 | 81.7 | 107 | 77.4 | 78.2 | 105 | 99.5 | 90.1 | 113 | 91 | 94.2 | 84.6 | 91.7 | 93.3 | – | 111 | – | – | 83.4
12 | C#Cc1cccc(Nc2ncnc3cc(OCCOC)c(OCCOC)cc23)c1 [erlotinib] + Cc1cc(SCc2sc(-c3ccc(C(F)(F)F)c(F)c3)nc2C)ccc1OCC(=O)O [GW0742] (first compound 4 µM, partner dose 10 µM) | 70.6 | 77.7 | 89.5 | 74.2 | 78.2 | 79.5 | 76.4 | 79.4 | 68.7 | 94.1 | 65.9 | 105 | 75.9 | 94.6 | 75.6 | 59.9 | 72.9 | – | – | –
13 | Clc1ccc(Nc2nnc(Cc3ccncc3)c3ccccc23)cc1 [vatalanib] + Cc1cc(SCc2sc(-c3ccc(C(F)(F)F)c(F)c3)nc2C)ccc1OCC(=O)O [GW0742] (first compound 10 µM, partner dose 10 µM) | 64.5 | 73.6 | 66.9 | 72.5 | 49.2 | 55.6 | 78.6 | 66.9 | 77.2 | 95.4 | 70.3 | 80.7 | 79.3 | 89.6 | 90.4 | – | 71 | – | – | 79.6
14 | C[C@@H]1CCN(C(=O)CC#N)C[C@@H]1N(C)c1ncnc2[nH]ccc12 + O=C(Oc1ccc([N+](=O)[O-])cc1)N1CCC(C(O)(c2ccc3c(c2)OCO3)c2ccc3c(c2)OCO3)CC1 [JZL184] (first compound 5 µM, partner dose 5 µM) | 94.1 | 114 | 106 | 109 | 95.8 | 105 | 83.8 | 116 | 104 | 107 | 132 | 103 | 81.3 | 89.1 | 88.3 | 87.2 | 99.5 | – | – | –
15 | Nc1ccn([C@@H]2O[C@H](CO)[C@@H](O)C2(F)F)c(=O)n1 [gemcitabine] + C/C(O)=C(\C#N)C(=O)Nc1cc(Br)ccc1Br [LFM-A13] (first compound 0.002 µM, partner dose 10 µM) | 64.1 | 66.1 | 46.5 | 85.6 | 75.8 | 43.2 | 70.5 | 77.2 | 82.6 | 78.8 | 88.4 | 106 | 112 | 94.3 | 75.7 | – | 95.2 | 74.6 | 84.9 | 91.6
16 | COc1ccc(COc2ccc(Cc3cnc(N)nc3N)cc2OC)cc1 + C/C(O)=C(\C#N)C(=O)Nc1cc(Br)ccc1Br [LFM-A13] (first compound 5 µM, partner dose 10 µM) | 109 | 108 | 106 | 94.7 | 100 | 81.6 | 91.3 | 96.8 | 89.6 | 73.1 | 74.7 | 96.6 | 108 | 99.4 | 99.5 | 99 | 106 | 132 | 121 | 105
17 | Nc1ccn([C@@H]2O[C@H](CO)[C@@H](O)C2(F)F)c(=O)n1 [gemcitabine] + Cc1cc(SCc2sc(-c3ccc(C(F)(F)F)c(F)c3)nc2C)ccc1OCC(=O)O [GW0742] (first compound 0.002 µM, partner dose 10 µM) | 49.5 | 50.6 | 50.7 | 102 | 66.5 | 44.6 | 60.5 | 65.8 | 73.6 | 99 | 73.7 | 104 | 88.3 | 83.3 | 66.3 | – | 86.5 | – | – | –
